From publication PMC3442408 (Molecular Biology of the Cell, 2012)

Biological target: HA-cbl (UniProt P22681 1-906)
Test: co-IP

B1: FLAG-CIN85-4F (CIN85-Y10/109/271/278F) (natural protein)
chain: not shown
Question: B1 was tested. Which “reduction of binding relative to CIN85wt” value did it give?
Answer: The value was roughly 80%.
